Results: publication PMC4336329 (PLoS ONE, 2015)
The campaign covered roughly 310,000 compounds. About 2,200 (0.71%) showed an effect of 50% or more. The effect is printed as a negative number. The list shows a part of the results.

The molecules below were run against human ether-à-go-go-related gene (hERG) potassium channel (human, UniProt Q12809) (assay: primary screen, population patch clamp on CHO cells stably expressing hERG).
Chain of human ether-à-go-go-related gene (hERG) potassium channel (Q12809 whole entry, looked up): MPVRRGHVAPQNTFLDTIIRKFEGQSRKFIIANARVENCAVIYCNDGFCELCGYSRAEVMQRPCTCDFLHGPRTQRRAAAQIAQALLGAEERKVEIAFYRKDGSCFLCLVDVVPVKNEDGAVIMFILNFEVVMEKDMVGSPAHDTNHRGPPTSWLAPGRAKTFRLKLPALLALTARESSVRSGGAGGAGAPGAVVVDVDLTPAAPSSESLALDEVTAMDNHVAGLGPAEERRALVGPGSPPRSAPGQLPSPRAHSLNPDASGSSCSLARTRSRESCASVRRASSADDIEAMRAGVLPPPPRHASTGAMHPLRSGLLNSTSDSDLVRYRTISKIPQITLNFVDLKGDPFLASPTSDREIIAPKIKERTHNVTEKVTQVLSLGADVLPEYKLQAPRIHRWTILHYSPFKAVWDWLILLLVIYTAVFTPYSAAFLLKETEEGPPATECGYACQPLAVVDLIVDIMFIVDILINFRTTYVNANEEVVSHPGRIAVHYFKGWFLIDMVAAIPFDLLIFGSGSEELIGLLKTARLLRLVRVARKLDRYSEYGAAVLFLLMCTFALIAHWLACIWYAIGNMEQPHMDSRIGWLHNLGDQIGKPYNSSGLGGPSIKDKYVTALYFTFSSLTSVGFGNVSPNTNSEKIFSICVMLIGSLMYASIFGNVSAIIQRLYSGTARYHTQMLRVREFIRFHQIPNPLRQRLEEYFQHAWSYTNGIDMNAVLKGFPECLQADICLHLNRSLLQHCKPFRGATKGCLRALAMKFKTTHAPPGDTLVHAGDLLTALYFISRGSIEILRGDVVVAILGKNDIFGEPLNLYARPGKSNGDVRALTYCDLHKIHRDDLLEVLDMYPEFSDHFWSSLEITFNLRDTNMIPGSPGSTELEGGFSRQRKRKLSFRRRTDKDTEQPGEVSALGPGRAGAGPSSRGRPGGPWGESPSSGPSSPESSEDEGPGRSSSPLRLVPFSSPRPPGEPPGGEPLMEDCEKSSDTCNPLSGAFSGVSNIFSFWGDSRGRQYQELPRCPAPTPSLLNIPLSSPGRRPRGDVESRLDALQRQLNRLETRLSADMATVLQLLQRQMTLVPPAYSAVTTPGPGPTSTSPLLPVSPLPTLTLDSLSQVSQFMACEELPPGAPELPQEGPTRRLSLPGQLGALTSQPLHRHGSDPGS
For `COc1cc(/C=C/C(=O)Nc2nnc(CC(C)C)s2)cc(OC)c1OC`, the “hERG current change (%, negative = inhibition) at 1uM” value was -4.01%.
For `COc1cccc(NS(=O)(=O)c2cc3[nH]c(=O)c(=O)[nH]c3cc2C)c1`, the “hERG current change (%, negative = inhibition) at 1uM” value was 20.3%.
For `CCc1cc(=O)oc2cc(O[C@@H]3O[C@H](CO)[C@@H](O)[C@H](O)[C@H]3O)c(Cl)cc12`, the “hERG current change (%, negative = inhibition) at 1uM” value was 4.32%.
For `COC(=O)N1CCN(CCc2ccccc2)CC1`, the “hERG current change (%, negative = inhibition) at 1uM” value was 8.11%.
`CC(CCc1ccccc1)OS(N)(=O)=O` (stereo not drawn) was tested, and the “hERG current change (%, negative = inhibition) at 1uM” value was 9.04%.
With `CCN(CC)C(=O)Cn1cc(S(=O)(=O)CC(=O)NCc2ccc(C)cc2)c2ccccc21` the “hERG current change (%, negative = inhibition) at 1uM” value was 4.18%.
In the case of `O=[n+]1cc(-c2cc3ccccc3o2)n([O-])c2c1CCCC2`, the “hERG current change (%, negative = inhibition) at 1uM” value is reported as 8.6%.
With `Cc1cc(NC(=O)CSc2nnc(-c3ccccc3C)n2C)no1` the “hERG current change (%, negative = inhibition) at 1uM” value was 21.7%.
For `CC(C)N(Cc1cn(C)nc1-c1cccc(Cl)c1)Cc1nccn1C`, the “hERG current change (%, negative = inhibition) at 1uM” value was 10.2%.
`Cc1ccc(NS(=O)(=O)c2cccc(C(=O)O)c2)cc1S(=O)(=O)N1CCCCC1` was tested, and the “hERG current change (%, negative = inhibition) at 1uM” value was 8.67%.
`COC(=O)N1C(=O)[C@@](CC(C)C)(c2ccccc2)N1C(=O)OC` was tested, and the “hERG current change (%, negative = inhibition) at 1uM” value was -0.755%.
For `CCCOC(=O)c1cccc(NC(=O)COc2ccc([N+](=O)[O-])cc2)c1`, the “hERG current change (%, negative = inhibition) at 1uM” value was -12.8%.
With `O=C(c1ccco1)N1CCC(c2nc3c(nnn3Cc3ccccc3Cl)c(=O)[nH]2)CC1` the “hERG current change (%, negative = inhibition) at 1uM” value was 0.457%.
With `CC(C)CN(CC(C)C)S(=O)(=O)N1CCC(C(=O)NCc2ccco2)CC1` the “hERG current change (%, negative = inhibition) at 1uM” value was 16.7%.
With `O=C1CSC(c2cccc([N+](=O)[O-])c2)N1Cc1ccccc1` (stereo not drawn) the “hERG current change (%, negative = inhibition) at 1uM” value was 18.9%.
In the case of `O=C(NCCCn1ccnc1)c1nc(Cn2cc(Br)cn2)no1`, the “hERG current change (%, negative = inhibition) at 1uM” value is reported as 8.89%.
With `O=C(c1ccc(Cl)cc1)[C@@H]1[C@@H]2C(=O)N(c3ccccc3)C(=O)[C@@H]2C2c3ccccc3C=NN21` (stereo partly drawn) the “hERG current change (%, negative = inhibition) at 1uM” value was 3.43%.
In the case of `O=S(=O)(c1ccc(NC(=S)NCc2cccnc2)cc1)N1CCCCC1`, the “hERG current change (%, negative = inhibition) at 1uM” value is reported as 6.23%.
`O=C(CSc1ccc2ccccc2n1)NC1CC1` was tested, and the “hERG current change (%, negative = inhibition) at 1uM” value was 13.4%.
In the case of `Nc1nc(CSC(=S)N2CCOCC2)nc(Nc2ccc(F)cc2)n1`, the “hERG current change (%, negative = inhibition) at 1uM” value is reported as 2.72%.
`CC(NC(=O)Cc1ccc(F)cc1)C(c1cccs1)N1CCN(C)CC1` (stereo not drawn) was tested, and the “hERG current change (%, negative = inhibition) at 1uM” value was 8.25%.
`CCOc1ccccc1N1CCN(C(=O)c2cc(C)oc2C)CC1` was tested, and the “hERG current change (%, negative = inhibition) at 1uM” value was 8.21%.
In the case of `COc1ccc(C(=O)c2c3ccc(C(F)(F)F)cc3[n+]([O-])n2CCCC(N)=O)cc1`, the “hERG current change (%, negative = inhibition) at 1uM” value is reported as -21.6%.
`Cc1nc2ccc(Br)cc2c2c1CC(CBr)O2` (stereo not drawn) was tested, and the “hERG current change (%, negative = inhibition) at 1uM” value was 7.75%.
In the case of `COc1ccc(S(=O)(=O)N(CC(=O)N2CCN(C)CC2)c2ccc(C)cc2)cc1OC`, the “hERG current change (%, negative = inhibition) at 1uM” value is reported as 4.99%.
`FC(F)(F)c1cccc(Nc2cc(-c3ccccc3)nc3ncnn23)c1` was tested, and the “hERG current change (%, negative = inhibition) at 1uM” value was 12.6%.
For `CCOC(=O)c1ccc(NC(=O)CC2C(=O)N(c3cccc(OC)c3)C(=O)N2CCOC)cc1` (stereo not drawn), the “hERG current change (%, negative = inhibition) at 1uM” value was 9.03%.
In the case of `CC1CCN(C(=O)COC(=O)c2ccc(N3CCCC3=O)cc2)CC1`, the “hERG current change (%, negative = inhibition) at 1uM” value is reported as 11.1%.
With `CCOc1ccc(-n2c(N)c(C(=O)NCc3ccco3)c3nc4ccccc4nc32)cc1` the “hERG current change (%, negative = inhibition) at 1uM” value was 1.97%.
`O=C(/C=C/c1cccs1)NC1CCS(=O)(=O)C1` (stereo not drawn) was tested, and the “hERG current change (%, negative = inhibition) at 1uM” value was 13.9%.
With `Cc1ccc(NC(=O)c2cc(-c3ccc(C)o3)nc3ccccc23)cc1` the “hERG current change (%, negative = inhibition) at 1uM” value was 13.9%.
With `COc1ccccc1CCC(=O)OCC(=O)NC1CCCCC1` the “hERG current change (%, negative = inhibition) at 1uM” value was 10.5%.
`Cc1cccc(NS(=O)(=O)c2cccc(C(=O)N3CC(C)OC(C)C3)c2)c1` (stereo not drawn) was tested, and the “hERG current change (%, negative = inhibition) at 1uM” value was 14.6%.
With `CCN1CCN(C(=O)c2nn(-c3ccc(C)cc3)c(=O)c3c2c2ccccc2n3C)CC1` the “hERG current change (%, negative = inhibition) at 1uM” value was 7.19%.
In the case of `Cc1ccsc1C(=O)OCC(=O)NCCCc1ccccc1`, the “hERG current change (%, negative = inhibition) at 1uM” value is reported as -9.97%.
`NC1=NC(=Nc2ccc(Br)cc2)c2ccccc21` was tested, and the “hERG current change (%, negative = inhibition) at 1uM” value was 9.14%.
For `N#CCCN(C(=O)c1ccco1)c1ccccc1`, the “hERG current change (%, negative = inhibition) at 1uM” value was 13.3%.
In the case of `O=C1c2ccccc2S(=O)(=O)c2cc(C(=O)N3CCCC3)ccc21`, the “hERG current change (%, negative = inhibition) at 1uM” value is reported as 14.7%.
For `CC(=O)Nc1ccc(NC(=O)C2CCN(C(=O)c3ccc([N+](=O)[O-])cc3)CC2)cc1`, the “hERG current change (%, negative = inhibition) at 1uM” value was 22.3%.
`Cc1cccc(C)c1NC(=O)CN1CCN(CC(=O)c2cc(C)n(C3CC3)c2C)CC1` was tested, and the “hERG current change (%, negative = inhibition) at 1uM” value was -0.73%.
For `Cc1c(N=NC2=C(O)CC(C)(C)CC2=O)cc2c(c1[N+](=O)[O-])C(C)(C)CC2(C)C`, the “hERG current change (%, negative = inhibition) at 1uM” value was 13.6%.
In the case of `CCCCNc1nc2c(S(=O)(=O)c3ccccc3)nnn2c2ccccc12`, the “hERG current change (%, negative = inhibition) at 1uM” value is reported as 15.8%.
